From PMC4642984 come the findings set out here.

The chains behind the UniProt entries cited, without tags or fusion partners. Where a name states a change or a piece, a line headed by the entry shows the natural chain unless it says otherwise. A line that says so, or that is headed by a name, gives the form on record, which may keep a tag or linker.
UniProt P68400: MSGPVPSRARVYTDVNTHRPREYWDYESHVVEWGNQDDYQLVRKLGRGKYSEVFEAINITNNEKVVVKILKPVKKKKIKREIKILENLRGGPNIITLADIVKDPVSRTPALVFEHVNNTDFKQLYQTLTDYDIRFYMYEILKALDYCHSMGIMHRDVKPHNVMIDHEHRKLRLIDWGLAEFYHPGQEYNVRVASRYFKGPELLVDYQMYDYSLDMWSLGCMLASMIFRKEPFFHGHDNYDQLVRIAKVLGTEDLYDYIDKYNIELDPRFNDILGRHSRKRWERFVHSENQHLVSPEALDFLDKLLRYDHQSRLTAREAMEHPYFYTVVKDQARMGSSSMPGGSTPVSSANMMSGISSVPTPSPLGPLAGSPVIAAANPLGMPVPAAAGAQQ
UniProt P67870: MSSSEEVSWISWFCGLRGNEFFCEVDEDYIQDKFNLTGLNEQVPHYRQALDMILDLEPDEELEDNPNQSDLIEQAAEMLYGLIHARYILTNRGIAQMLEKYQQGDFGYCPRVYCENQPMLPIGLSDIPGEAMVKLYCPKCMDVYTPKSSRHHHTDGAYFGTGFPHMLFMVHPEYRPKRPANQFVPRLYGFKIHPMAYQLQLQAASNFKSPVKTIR
ELucC-BMAL1 (Q9WTL8-2, form named): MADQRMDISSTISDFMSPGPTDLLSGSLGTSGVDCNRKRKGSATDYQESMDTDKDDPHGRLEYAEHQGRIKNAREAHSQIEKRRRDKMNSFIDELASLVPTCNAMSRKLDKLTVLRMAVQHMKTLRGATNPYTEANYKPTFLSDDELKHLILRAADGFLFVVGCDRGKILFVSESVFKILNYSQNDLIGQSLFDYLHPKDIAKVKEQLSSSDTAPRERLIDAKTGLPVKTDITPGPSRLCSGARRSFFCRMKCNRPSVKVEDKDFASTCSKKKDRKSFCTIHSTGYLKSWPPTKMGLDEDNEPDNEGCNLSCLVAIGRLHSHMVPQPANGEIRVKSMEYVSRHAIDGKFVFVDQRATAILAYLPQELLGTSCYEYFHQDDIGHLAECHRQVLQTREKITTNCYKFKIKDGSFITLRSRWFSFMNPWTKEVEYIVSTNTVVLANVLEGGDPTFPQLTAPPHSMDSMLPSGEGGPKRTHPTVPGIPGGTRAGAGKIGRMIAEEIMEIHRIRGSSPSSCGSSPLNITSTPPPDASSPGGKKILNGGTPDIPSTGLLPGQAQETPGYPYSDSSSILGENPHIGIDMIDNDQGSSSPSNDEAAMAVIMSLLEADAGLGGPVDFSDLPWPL
ElucC-mBMAL1-K537R (Q9WTL8-2, form named): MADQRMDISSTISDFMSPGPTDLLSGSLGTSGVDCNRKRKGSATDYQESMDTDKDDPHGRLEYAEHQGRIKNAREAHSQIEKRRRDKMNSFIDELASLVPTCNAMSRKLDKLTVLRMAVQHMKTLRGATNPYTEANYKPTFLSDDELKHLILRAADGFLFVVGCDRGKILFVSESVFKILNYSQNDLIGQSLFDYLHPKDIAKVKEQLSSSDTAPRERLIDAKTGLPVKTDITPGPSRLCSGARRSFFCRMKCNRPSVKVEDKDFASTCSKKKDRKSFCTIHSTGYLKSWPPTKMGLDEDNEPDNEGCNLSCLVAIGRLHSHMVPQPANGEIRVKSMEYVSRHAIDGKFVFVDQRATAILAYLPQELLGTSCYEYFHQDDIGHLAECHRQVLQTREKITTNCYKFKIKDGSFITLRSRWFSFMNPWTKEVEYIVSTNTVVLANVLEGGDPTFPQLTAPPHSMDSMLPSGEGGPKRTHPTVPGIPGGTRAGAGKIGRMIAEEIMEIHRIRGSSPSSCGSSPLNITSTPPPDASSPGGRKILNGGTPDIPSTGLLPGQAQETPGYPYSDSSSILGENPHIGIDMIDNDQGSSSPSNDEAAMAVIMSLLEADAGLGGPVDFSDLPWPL
UniProt P67871: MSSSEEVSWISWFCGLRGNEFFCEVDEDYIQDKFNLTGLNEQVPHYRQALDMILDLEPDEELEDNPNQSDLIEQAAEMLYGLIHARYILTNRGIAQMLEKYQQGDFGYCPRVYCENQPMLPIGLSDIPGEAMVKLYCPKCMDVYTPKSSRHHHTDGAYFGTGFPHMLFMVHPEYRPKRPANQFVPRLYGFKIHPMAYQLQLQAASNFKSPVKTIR

The target in experiment [1] is GST-CK2α (UniProt P68400). Kind of experiment: pull-down; purified bacterially expressed GST-CK2 subunits mixed 1:1 with in vitro translated 35S-methionine labeled clock proteins, precipitated with glutathione Sepharose beads, SDS-PAGE and autoradiography; only the target purified.
The target of experiment [2] is GST-CK2β (UniProt P67870). The description is as above.
Experiment [3] addresses BMAL1 (mouse (endogenous in MEFs)) (UniProt Q9WTL8). Kind of experiment: co-IP; endogenous proteins from lysates of mouse embryonic fibroblasts (WT; also BMAL1-deficient, SIRT1KO, and CRYdKO stably expressing Myc-CRY1; unsynchronised or Dex-synchronised, harvested at intervals); IP with anti-BMAL1, anti-CK2α, anti-CK2β or anti-CRY1/2, immunoblot.
The target in experiment [4] is Myc-BMAL1-WT (UniProt Q9WTL8). Kind of experiment: co-IP; Myc-BMAL1 IP from supernatants of Dex-synchronized Bmal1-/- MEFs stably expressing Myc-BMAL1-WT, -S90A or -K537R, harvested 22 h after treatment; immunoblot for CK2β, CRY1/2 and CLOCK. Background: A western blot detects proteins with antibodies after separation by electrophoresis.
Experiment [5] deals with BMAL1 (mouse (endogenous in MEFs)) (UniProt Q9WTL8). Kind of experiment: co-IP; lysates of CRYdKO (Cry1-/-/Cry2-/-) mouse embryonic fibroblasts; BMAL1-IP and CK2β-IP, immunoblot.
The target in experiment [6] is McLuc1-BMAL1 (mouse) (UniProt Q9WTL8). Kind of experiment: split reporter; Split Luc complementation in living Dex-synchronized U-2OS cells expressing ELucN-CK2β and McLuc1-BMAL1; real-time bioluminescence over circadian time.
In experiment [7] the target is ELucC-BMAL1 (mouse) (UniProt Q9WTL8). Kind of experiment: split reporter; Split Luc complementation in living Cos7 cells transfected with ELucN-CK2β and ELucC-BMAL1 (WT or mutant) together with pcDNA, Myc-HA-CRY1, Myc-CRY2 or FLAG-CRY1 (WT or Cd1-4); real-time bioluminescence, averaged peak values.
Experiment [8] addresses ElucC-mBMAL1-K537R (mouse) (UniProt Q9WTL8). Described as above.

No constants are given. Whether binding was seen depends on the method and setting. In cells and extracts the contact can be indirect. Some entries that bind do so weakly or less than the wild type.

As for “in vitro translated 35S-methionine labeled BMAL1 (from UniProt Q9WTL8-2 1-625)”, the binding entry in experiment [1] and in experiment [2] was “binds” in each case.
As to CK2β (from UniProt P67871 1-215), the binding result is recorded as “binds” in experiment [3], “binds” in experiment [4] and “no binding (condition: in CRY1/2-deficient (CRYdKO) MEFs)” in experiment [5].
Take ELucN-CK2β (from UniProt P67870 1-215): the binding entry in experiment [6], in experiment [7] and in experiment [8] was “binds” in each case.
